Whole data set: some 2,900 compounds, median “IRF Lucia reporter activity, fold change vs agonist alone” near 0.9, cut for the highest 2% near 2.8. Some of the results follow.
Tests used:
RAW-Dual [1] = assay: IRF Lucia reporter activity, fold change vs agonist alone; cytotoxicity flag (confluency mask): not cytotoxic; higher = enhanced IRF activity
Method in brief: (§1)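 Reporter activity is given as fold change relative to agonist-alone wells. To measure it, 50 nL of library stock was pin-tooled onto RAW-Dual macrophages (50,000 cells/well, DMEM, 384-well plates), a PRR agonist followed 1 h later, and cells stayed at 37 °C, 5% CO2. Twenty hours on, supernatant was assayed for IRF (QuantiLuc luminescence) and NF-κB (QuantiBlue, 620 nm absorbance), and wells under 70% of agonist-control IncuCyte confluency in both mask sets were marked cytotoxic.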

RAW-Dual [2] = assay: IRF Lucia reporter activity, fold change vs agonist alone; higher = enhanced IRF activity; details: library stock concentration (final ~1000-fold dilution): 10 mM, agonist: MPLA (TLR4) […]
Method in brief: as §1

RAW-Dual [3] = assay: IRF Lucia reporter activity, fold change vs agonist alone; cytotoxicity flag (confluency mask): cytotoxic (confluency <70% of control); higher = enhanced IRF activity
Method in brief: as §1

[4] = agonist: 3'3'-cGAMP (STING) 10 ug/mL
[5] = cytotoxicity flag (confluency mask): cytotoxic (confluency <70% of control)
[6] = cytotoxicity flag (confluency mask): not cytotoxic

Structure (SMILES): CN(C)NC(=O)CCC(=O)O (library stock concentration (final ~1000-fold dilution): 10 mM)
- IRF Lucia reporter activity (RAW-Dual [1]; [4]): 0.969
- IRF Lucia reporter activity (RAW-Dual [1]; agonist: LPS (TLR4) 0.1 ug/mL): 0.898

Structure (SMILES): CCC1=CC2CN3CCc4c([nH]c5ccccc45)C(C(=O)OC)(C2)C13.O=C(O)C(O)C(O)C(=O)O (centres undefined) (library stock concentration (final ~1000-fold dilution): 10 mM)
- IRF Lucia reporter activity (RAW-Dual [1]; [4]): 0.635
- IRF Lucia reporter activity (RAW-Dual [1]; agonist: LPS (TLR4) 0.1 ug/mL): 1.33

Structure (SMILES): O=[N+]([O-])/C=C/c1ccc2c(c1)OCO2
- IRF Lucia reporter activity (RAW-Dual [2]; [5]): 0.0354

Structure (SMILES): O=[N+]([O-])/C=C/c1ccc2c(c1)OCO2 (library stock concentration (final ~1000-fold dilution): 10 mM)
- IRF Lucia reporter activity (RAW-Dual [3]; [4]): 0.0523
- IRF Lucia reporter activity (RAW-Dual [3]; agonist: LPS (TLR4) 0.1 ug/mL): 0.0242

Structure (SMILES): CC(C)N(CCC(C(N)=O)(c1ccccc1)c1ccccn1)C(C)C (centres undefined) (library stock concentration (final ~1000-fold dilution): 10 mM)
- IRF Lucia reporter activity (RAW-Dual [1]; [4]): 1
- IRF Lucia reporter activity (RAW-Dual [1]; agonist: LPS (TLR4) 0.1 ug/mL): 1.13

Structure (SMILES): CC(C)N(CCC(C(N)=O)(c1ccccc1)c1ccccn1)C(C)C (centres undefined)
- IRF Lucia reporter activity (RAW-Dual [2]; [6]): 1.03

Structure (SMILES): COc1ccc(CN2CCNCC2)c(OC)c1OC.Cl.Cl
- IRF Lucia reporter activity (RAW-Dual [2]; [6]): 1.09

Structure (SMILES): COc1ccc(CN2CCNCC2)c(OC)c1OC.Cl.Cl (library stock concentration (final ~1000-fold dilution): 10 mM)
- IRF Lucia reporter activity (RAW-Dual [1]; [4]): 1.15
- IRF Lucia reporter activity (RAW-Dual [1]; agonist: LPS (TLR4) 0.1 ug/mL): 1

Structure (SMILES): C=C1CC2C(CCC3(C)C(=O)CCC23)C2(C)C=CC(=O)C=C12 (centres undefined)
- IRF Lucia reporter activity (RAW-Dual [2]; [6]): 1.27

Structure (SMILES): C=C1CC2C(CCC3(C)C(=O)CCC23)C2(C)C=CC(=O)C=C12 (centres undefined) (library stock concentration (final ~1000-fold dilution): 10 mM)
- IRF Lucia reporter activity (RAW-Dual [1]; [4]): 0.704
- IRF Lucia reporter activity (RAW-Dual [1]; agonist: LPS (TLR4) 0.1 ug/mL): 1.02

Structure (SMILES): CCCCCCC[n+]1ccc(-c2cc[n+](CCCCCCC)cc2)cc1 (library stock concentration (final ~1000-fold dilution): 10 mM)
- IRF Lucia reporter activity (RAW-Dual [1]; [4]): 0.953
- IRF Lucia reporter activity (RAW-Dual [1]; agonist: LPS (TLR4) 0.1 ug/mL): 1.08

Structure (SMILES): CCCCCCC[n+]1ccc(-c2cc[n+](CCCCCCC)cc2)cc1
- IRF Lucia reporter activity (RAW-Dual [2]; [6]): 0.9

Structure (SMILES): CC(C)=CCOc1c2occc2cc2ccc(=O)oc12
- IRF Lucia reporter activity (RAW-Dual [2]; [6]): 1.4

Structure (SMILES): CC(C)=CCOc1c2occc2cc2ccc(=O)oc12 (library stock concentration (final ~1000-fold dilution): 10 mM)
- IRF Lucia reporter activity (RAW-Dual [1]; [4]): 1.4
- IRF Lucia reporter activity (RAW-Dual [1]; agonist: LPS (TLR4) 0.1 ug/mL): 1.5

Structure (SMILES): O=c1ccc2ccc3occc3c2o1
- IRF Lucia reporter activity (RAW-Dual [2]; [6]): 1.03

Structure (SMILES): O=c1ccc2ccc3occc3c2o1 (library stock concentration (final ~1000-fold dilution): 10 mM)
- IRF Lucia reporter activity (RAW-Dual [1]; [4]): 1.02
- IRF Lucia reporter activity (RAW-Dual [1]; agonist: LPS (TLR4) 0.1 ug/mL): 1.07

Structure (SMILES): COc1ccc(/C=C/c2cc(OC)cc(OC)c2)cc1 (library stock concentration (final ~1000-fold dilution): 10 mM)
- IRF Lucia reporter activity (RAW-Dual [1]; [4]): 0.395
- IRF Lucia reporter activity (RAW-Dual [1]; agonist: LPS (TLR4) 0.1 ug/mL): 0.965

Structure (SMILES): COc1cc(C)[nH]c(=O)c1CNC(=O)c1c(C)n(C(C)C2CCN(CC(F)(F)F)CC2)c2ccccc12 (centres undefined) (library stock concentration (final ~1000-fold dilution): 10 mM)
- IRF Lucia reporter activity (RAW-Dual [1]; [4]): 1.08
- IRF Lucia reporter activity (RAW-Dual [1]; agonist: LPS (TLR4) 0.1 ug/mL): 0.858

Structure (SMILES): CC12CCC3C(CCC4=C(O)C(=O)CCC43C)C1CCC2=O (centres undefined)
- IRF Lucia reporter activity (RAW-Dual [2]; [6]): 0.971

Structure (SMILES): CC12CCC3C(CCC4=C(O)C(=O)CCC43C)C1CCC2=O (centres undefined) (library stock concentration (final ~1000-fold dilution): 10 mM)
- IRF Lucia reporter activity (RAW-Dual [1]; [4]): 1.06
- IRF Lucia reporter activity (RAW-Dual [1]; agonist: LPS (TLR4) 0.1 ug/mL): 0.91

Structure (SMILES): CC1=C(O)C(=O)C=C2C1=CC=C1C2(C)CCC2(C)C3CC(C)(C(=O)O)CCC3(C)CCC12C (centres undefined) (library stock concentration (final ~1000-fold dilution): 10 mM)
- IRF Lucia reporter activity (RAW-Dual [1]; [4]): 0.011
- IRF Lucia reporter activity (RAW-Dual [1]; agonist: LPS (TLR4) 0.1 ug/mL): 0.0187

Structure (SMILES): CC1=C(O)C(=O)C=C2C1=CC=C1C2(C)CCC2(C)C3CC(C)(C(=O)O)CCC3(C)CCC12C (centres undefined)
- IRF Lucia reporter activity (RAW-Dual [2]; [6]): 0.0189

Structure (SMILES): CCC1(c2c[nH]cn2)Cc2ccccc2C1.Cl (library stock concentration (final ~1000-fold dilution): 10 mM)
- IRF Lucia reporter activity (RAW-Dual [1]; [4]): 1.08
- IRF Lucia reporter activity (RAW-Dual [1]; agonist: LPS (TLR4) 0.1 ug/mL): 1.3

Structure (SMILES): CCC1(c2c[nH]cn2)Cc2ccccc2C1.Cl
- IRF Lucia reporter activity (RAW-Dual [2]; [6]): 1.08

Structure (SMILES): CC(=O)OC(C)(C)/C=C/C(=O)C(C)(O)C1C(O)CC2(C)C3CC=C4C(CC(O)C(=O)C4(C)C)C3(C)C(=O)CC12C (centres undefined) (library stock concentration (final ~1000-fold dilution): 10 mM)
- IRF Lucia reporter activity (RAW-Dual [1]; [4]): 0.0972
- IRF Lucia reporter activity (RAW-Dual [1]; agonist: LPS (TLR4) 0.1 ug/mL): 0.031

Structure (SMILES): O=c1[nH]c2ccccc2n1CCCN1CCC(n2c(=O)[nH]c3cc(Cl)ccc32)CC1 (library stock concentration (final ~1000-fold dilution): 10 mM)
- IRF Lucia reporter activity (RAW-Dual [1]; [4]): 0.923
- IRF Lucia reporter activity (RAW-Dual [1]; agonist: LPS (TLR4) 0.1 ug/mL): 1.27

Structure (SMILES): O=c1[nH]c2ccccc2n1CCCN1CCC(n2c(=O)[nH]c3cc(Cl)ccc32)CC1
- IRF Lucia reporter activity (RAW-Dual [2]; [6]): 1.31

Structure (SMILES): CC1CCCC(=O)CCC/C=C/c2cc(O)cc(O)c2C(=O)O1 (centres undefined) (library stock concentration (final ~1000-fold dilution): 10 mM)
- IRF Lucia reporter activity (RAW-Dual [1]; [4]): 0.923
- IRF Lucia reporter activity (RAW-Dual [1]; agonist: LPS (TLR4) 0.1 ug/mL): 0.991

Structure (SMILES): CC1CCCC(=O)CCC/C=C/c2cc(O)cc(O)c2C(=O)O1 (centres undefined)
- IRF Lucia reporter activity (RAW-Dual [2]; [6]): 1.44

Structure (SMILES): c1ccc2c(c1)Sc1ccccc1N2CC1CN2CCC1CC2 (centres undefined) (library stock concentration (final ~1000-fold dilution): 10 mM)
- IRF Lucia reporter activity (RAW-Dual [3]; [4]): 0.767
- IRF Lucia reporter activity (RAW-Dual [3]; agonist: LPS (TLR4) 0.1 ug/mL): 0.761

Structure (SMILES): c1ccc2c(c1)Sc1ccccc1N2CC1CN2CCC1CC2 (centres undefined)
- IRF Lucia reporter activity (RAW-Dual [2]; [5]): 1.55

Reference: the supplement of paper PMC10037445
